± gives the standard error. Variants at the background level are over-represented here.
B1: glmS ribozyme (parent)
chain: AUAAAAGCGCCAGAACUACAGAAAUGUAGUUGACGAGGAGGAGGUUUAUCGAAUUUUCGGCGGAUGCCUCCAAA

Tests used:
Details in all cases: with glucosamine-6-phosphate
glucosamine-6-phosphate [1] = variants of: B1; test: self-cleavage kobs at 40 uM GlcN6P; higher = faster cleavage; RNA array
Outline: (§1)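 Glucosamine-6-phosphate in HEPES/KCl/Mg(OAc)2 buffer, at 40 μM to 10 mM, was flowed over barcoded ribozyme variants transcribed in situ by E. coli RNA polymerase on sequenced MiSeq chips. Tracking was through a hybridised Cy3 probe at 37 °C. kobs, kcat and KM came from exponential decay fits and weighted Michaelis–Menten fits of normalised per-tile medians.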

glucosamine-6-phosphate [2] = variants of: B1; test: self-cleavage kobs at 640 uM GlcN6P; higher = faster cleavage; RNA array
Outline: as §1

glucosamine-6-phosphate [3] = variants of: B1; test: self-cleavage kobs at 160 uM GlcN6P; higher = faster cleavage; RNA array
Outline: as §1

glucosamine-6-phosphate [4] = variants of: B1; test: self-cleavage kobs at 2500 uM GlcN6P; higher = faster cleavage; RNA array
Outline: as §1

glucosamine-6-phosphate [5] = variants of: B1; test: self-cleavage kobs at 10000 uM GlcN6P; higher = faster cleavage; RNA array
Outline: as §1

Variant | self-cleavage kobs at 40 uM GlcN6P (glucosamine-6-phosphate [1]) | self-cleavage kobs at 640 uM GlcN6P (glucosamine-6-phosphate [2]) | self-cleavage kobs at 160 uM GlcN6P (glucosamine-6-phosphate [3]) | self-cleavage kobs at 2500 uM GlcN6P (glucosamine-6-phosphate [4]) | self-cleavage kobs at 10000 uM GlcN6P (glucosamine-6-phosphate [5])
G9C A64G | < 1e-05 s⁻¹ | < 1e-05 s⁻¹ | < 1e-05 s⁻¹ | < 1e-05 s⁻¹ | < 1e-05 s⁻¹
G9C C10G G43U | < 1e-05 s⁻¹ | < 1e-05 s⁻¹ | < 1e-05 s⁻¹ | < 1e-05 s⁻¹ | < 1e-05 s⁻¹
G9C C10G G62U | < 1e-05 s⁻¹ | – | – | – | < 1e-05 s⁻¹
G9C C11U A52C | < 1e-05 s⁻¹ | – | – | – | –
G9C C11U U31C A36G G38A C50G U69G C70G | 0.00075 ± 0.00022 s⁻¹ | – | – | – | 0.000818 ± 0.00021 s⁻¹
G9C C16U U47A | < 1e-05 s⁻¹ | – | – | – | < 1e-05 s⁻¹
G9C C58U | < 1e-05 s⁻¹ | < 1e-05 s⁻¹ | < 1e-05 s⁻¹ | < 1e-05 s⁻¹ | < 1e-05 s⁻¹
G9C C67A | < 1e-05 s⁻¹ | < 1e-05 s⁻¹ | < 1e-05 s⁻¹ | < 1e-05 s⁻¹ | < 1e-05 s⁻¹
G9C C67A C70A | < 1e-05 s⁻¹ | – | – | – | < 1e-05 s⁻¹
G9C C67U | < 1e-05 s⁻¹ | < 1e-05 s⁻¹ | < 1e-05 s⁻¹ | < 1e-05 s⁻¹ | < 1e-05 s⁻¹
G9C C68U | < 1e-05 s⁻¹ | < 1e-05 s⁻¹ | – | < 1e-05 s⁻¹ | < 1e-05 s⁻¹
G9C C70U | < 1e-05 s⁻¹ | < 1e-05 s⁻¹ | < 1e-05 s⁻¹ | < 1e-05 s⁻¹ | < 1e-05 s⁻¹
G9C G29C C61U | < 1e-05 s⁻¹ | – | – | < 1e-05 s⁻¹ | –
G9C G32U | < 1e-05 s⁻¹ | < 1e-05 s⁻¹ | < 1e-05 s⁻¹ | – | < 1e-05 s⁻¹
G9C G38A | < 1e-05 s⁻¹ | < 1e-05 s⁻¹ | < 1e-05 s⁻¹ | – | –
G9C G43A | < 1e-05 s⁻¹ | – | – | – | < 1e-05 s⁻¹
G9C U31C U49G C67G | < 1e-05 s⁻¹ | < 1e-05 s⁻¹ | – | – | < 1e-05 s⁻¹
G9C U45G | < 1e-05 s⁻¹ | < 1e-05 s⁻¹ | < 1e-05 s⁻¹ | – | –
G9C U55A | < 1e-05 s⁻¹ | – | < 1e-05 s⁻¹ | < 1e-05 s⁻¹ | < 1e-05 s⁻¹
G9U A14C G32C A52C U65A | < 1e-05 s⁻¹ | – | – | < 1e-05 s⁻¹ | < 1e-05 s⁻¹
G9U A14G | < 1e-05 s⁻¹ | – | – | < 1e-05 s⁻¹ | < 1e-05 s⁻¹

Variant | self-cleavage kobs at 40 uM GlcN6P (glucosamine-6-phosphate [1]) | self-cleavage kobs at 640 uM GlcN6P (glucosamine-6-phosphate [2]) | self-cleavage kobs at 160 uM GlcN6P (glucosamine-6-phosphate [3]) | self-cleavage kobs at 2500 uM GlcN6P (glucosamine-6-phosphate [4]) | self-cleavage kobs at 10000 uM GlcN6P (glucosamine-6-phosphate [5])
G9U A36G A42U G44U | < 1e-05 s⁻¹ | – | – | – | –
G9U A36U | < 1e-05 s⁻¹ | < 1e-05 s⁻¹ | – | – | –
G9U C11A | < 1e-05 s⁻¹ | – | < 1e-05 s⁻¹ | – | –
G9U C11U A42G | < 1e-05 s⁻¹ | < 1e-05 s⁻¹ | – | < 1e-05 s⁻¹ | < 1e-05 s⁻¹
G9U C16U G38U G43A | < 1e-05 s⁻¹ | – | – | – | –
G9U C58U G66A | < 1e-05 s⁻¹ | – | – | – | –
G9U C67G | < 1e-05 s⁻¹ | – | < 1e-05 s⁻¹ | < 1e-05 s⁻¹ | –
G9U G13U A36U | < 1e-05 s⁻¹ | – | – | – | –
G9U G13U A64C C71A | < 1e-05 s⁻¹ | – | – | – | < 1e-05 s⁻¹
G9U G29A | < 1e-05 s⁻¹ | < 1e-05 s⁻¹ | < 1e-05 s⁻¹ | < 1e-05 s⁻¹ | < 1e-05 s⁻¹
G9U G29U U57G C61U | < 1e-05 s⁻¹ | – | – | – | –
G9U G32U | < 1e-05 s⁻¹ | < 1e-05 s⁻¹ | < 1e-05 s⁻¹ | < 1e-05 s⁻¹ | < 1e-05 s⁻¹
G9U G35A | < 1e-05 s⁻¹ | < 1e-05 s⁻¹ | < 1e-05 s⁻¹ | < 1e-05 s⁻¹ | < 1e-05 s⁻¹
G9U G38A U56C G63U | < 1e-05 s⁻¹ | – | – | – | –
G9U G38U G43U C50U | < 1e-05 s⁻¹ | – | – | – | < 1e-05 s⁻¹
G9U U30C | < 1e-05 s⁻¹ | < 1e-05 s⁻¹ | < 1e-05 s⁻¹ | – | < 1e-05 s⁻¹
G9U U46A C67G | < 1e-05 s⁻¹ | < 1e-05 s⁻¹ | – | < 1e-05 s⁻¹ | –
G9U U55C | < 1e-05 s⁻¹ | < 1e-05 s⁻¹ | – | – | < 1e-05 s⁻¹
G9U U65G | < 1e-05 s⁻¹ | < 1e-05 s⁻¹ | < 1e-05 s⁻¹ | < 1e-05 s⁻¹ | < 1e-05 s⁻¹
G9U U69A | < 1e-05 s⁻¹ | < 1e-05 s⁻¹ | < 1e-05 s⁻¹ | < 1e-05 s⁻¹ | < 1e-05 s⁻¹

Source: the supplement of paper PMC7125110
